From the supplement of paper PMC9446081
Out of some 39,000 compounds screened, about 220 (0.56%) showed activity. The list shows a part of the results.

The compounds below were run on Escherichia coli K-12 BW25113 (assay: relative growth (OD600 normalised to plate interquartile mean) (fraction); higher = less growth inhibition, active = 0.2 or less). Conditions: 50 µM; LB; incubation time: overnight (16-24 h).
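Also: static incubation at 37 °C against the wild-type strain, values averaged over two biological replicates.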

SMILES	relative growth
O=C(CCCCC(=O)N/N=C/c1cc[n+]([O-])cc1)NO	inactive: 0.993
C[C@H]1CN([C@@H](C)CO)C(=O)Cc2cc(NC(=O)Nc3ccc(Cl)c(Cl)c3)ccc2O[C@H]1CN(C)S(=O)(=O)c1ccc(Cl)cc1	inactive: 1.01
O=C(N[C@@H]1CC[C@@H](CCNS(=O)(=O)c2ccc(F)cc2)O[C@@H]1CO)C1CC1	inactive: 0.969
N#CCSc1n[nH]c(=O)[nH]c1=O	inactive: 1.02
COC(=O)C(Cc1ccccc1)NC(=O)C(N)CC(=O)O (stereo not drawn)	inactive: 0.995
C[C@@H]1CCCCO[C@H](CN(C)Cc2ccc(Cl)c(Cl)c2)[C@H](C)CN([C@@H](C)CO)C(=O)c2cc(NS(=O)(=O)c3cn(C)cn3)ccc2O1	inactive: 0.986
COCCNC(=O)C[C@H]1C[C@@H]2c3cc(NC(=O)Nc4ccc(C(F)(F)F)cc4)ccc3O[C@@H]2[C@H](CO)O1	inactive: 1
O=C1CCC(=O)N1Cc1cccc(CN2C(=O)[C@]3(CC(=O)N(Cc4ccccc4)C3=O)c3ccccc32)c1	inactive: 1.03
C[C@@H]1CCCCO[C@H](CN(C)C(=O)NC2CCCCC2)[C@@H](C)CN([C@@H](C)CO)C(=O)c2cc(NC(=O)c3ccccc3)ccc2O1	inactive: 1.03
COc1ccc([Si](C)(C)[C@H]2[C@H](CCO)O[C@@]3(C(=O)N(Cc4ccc(N5CCCCC5=O)cc4)c4ccccc43)[C@@H]2C)cc1	inactive: 1.02
Cc1noc(C)c1S(=O)(=O)N(C)C[C@H]1Oc2c(NS(C)(=O)=O)cccc2C(=O)N([C@@H](C)CO)C[C@H]1C	inactive: 0.978
CCS(=O)(=O)Nc1ccc2c(c1)C(=O)N(C)C[C@H](OC)[C@H](C)CN(CCC(F)(F)F)[C@H](C)CO2	inactive: 0.959
COc1cc(N2CC[C@H]3O[C@@H](C(=O)NCCN(C)C)C[C@H]32)ncn1	inactive: 1.01
C[C@H]1CN([C@@H](C)CO)C(=O)Cc2cc(NS(=O)(=O)c3ccccc3)ccc2O[C@H]1CN(C)Cc1ccc(Oc2ccccc2)cc1	inactive: 1.02
O=C(C[C@H]1C=C[C@@H](NC(=O)c2ccc(F)cc2)[C@@H](CO)O1)NCc1ccncn1	inactive: 1
CC(C)(C)[S@@](=O)N1Cc2cc(C(=O)N[C@H]3CCN(Cc4ccccc4)C3)nc(-c3cccc(-c4ccncc4)c3)c2[C@H]1CCO	inactive: 0.996
CC(C)CC#Cc1cnc2c(c1)C(=O)N([C@@H](C)CO)C[C@@H](C)[C@@H](CN(C)S(=O)(=O)c1cn(C)cn1)O2	inactive: 1.01
COC(=O)c1c(CC[C@@H](CO)NC(=O)N[C@H](Cc2ccccc2)Cn2cc(-c3ccccn3)nn2)oc(C(C)=O)c1C(=O)OC	inactive: 1
CCCCN(CCCC)CC[C@@H](O)c1cc2c(Cl)cc(Cl)cc2c2cc(C(F)(F)F)ccc12	inactive: 1.01
C[C@H](CO)N1C[C@H](C)[C@@H](CN(C)Cc2ccc(Cl)c(Cl)c2)Oc2ccc(NS(=O)(=O)c3ccc(Cl)cc3)cc2CC1=O	inactive: 1.03
C[C@@H]1CN([C@H](C)CO)C(=O)c2cc(NC(=O)C3CCCCC3)ccc2O[C@H]1CN(C)Cc1ccc(Cl)c(Cl)c1	inactive: 1.02

SMILES	relative growth
O=C(C[C@@H]1CC[C@H]2[C@@H](COC[C@H](O)CN2C(=O)c2cccnc2)O1)NCc1ccc(-c2ccccc2)cc1	inactive: 0.976
Cc1ccccc1S(=O)(=O)N1C[C@H](O)COC[C@H]2O[C@@H](CC(=O)N3CCC(Cc4ccccc4)CC3)CC[C@@H]21	inactive: 0.958
COCC#Cc1ccc2c(c1)O[C@@H](CN(C)S(=O)(=O)c1ccc(F)cc1)[C@@H](C)CN([C@H](C)CO)S2(=O)=O	inactive: 1.01
CC(=O)OC1CCC2(C)C(CCC3(C)C2CCC24OC(=O)C5(CCC(C)C(C)C52)CCC34C)C1(C)C (stereo not drawn)	inactive: 1.02
C=C(C)C1CC=C(CO)CC1 (stereo not drawn)	inactive: 1.05
C[C@H]1CN([C@@H](C)CO)C(=O)Cc2cc(NS(=O)(=O)c3cn(C)cn3)ccc2O[C@@H]1CN(C)Cc1ccc(C(=O)O)cc1	inactive: 0.964
C[C@@H]1CN([C@H](C)CO)S(=O)(=O)c2ccc(Br)cc2O[C@H]1CN(C)C(=O)Cc1ccccn1	inactive: 0.996
C[C@@H]1CN([C@@H](C)CO)C(=O)c2cc(NS(=O)(=O)c3ccc(Cl)cc3)ccc2O[C@@H](C)CCCCO[C@H]1CN(C)C(=O)c1ccccc1	inactive: 1.01
Cc1ccc(S(=O)(=O)N(C)C[C@@H]2Oc3c(NC(=O)C4CC4)cccc3C(=O)N([C@H](C)CO)C[C@H]2C)cc1	inactive: 0.983
CON	inactive: 0.981
C[C@H]1CN([C@@H](C)CO)C(=O)c2cccc(NC(=O)c3ccncc3)c2O[C@H]1CN(C)C(=O)Nc1ccc2c(c1)OCO2	inactive: 1.01
C[C@@H]1CN([C@@H](C)CO)C(=O)c2cccc(NC(=O)c3ccncc3)c2O[C@H]1CN(C)S(=O)(=O)c1cn(C)cn1	inactive: 0.99
Cc1noc(C)c1S(=O)(=O)N(C)C[C@@H]1Oc2c(NC(=O)C3CC3)cccc2C(=O)N([C@H](C)CO)C[C@@H]1C	inactive: 0.996
O=C(O)Cn1cccn1	inactive: 0.969
CCCN(C)C[C@@H]1OCCCC[C@@H](C)Oc2ccc(NS(C)(=O)=O)cc2C(=O)N([C@H](C)CO)C[C@@H]1C	inactive: 0.984
O=C(C[C@@H]1CC[C@H]2[C@@H](COC[C@H](O)CN2Cc2ccccc2F)O1)N[C@H]1CCN(Cc2ccccc2)C1	inactive: 0.979
CC(C)(N)c1cc(C(=O)N[C@@H]2CCc3ccc(Oc4ccnc5c4CCC(=O)N5)cc3C2)cc(C(F)(F)F)c1	inactive: 0.962
Cc1csc(-c2nnc(Nc3ccc(Oc4ncccc4-c4ccnc(N)n4)cc3)c3ccccc23)c1	inactive: 1.05
C[C@@H]1CN([C@H](C)CO)S(=O)(=O)c2ccc(/C=C/c3ccccc3)cc2O[C@@H]1CN(C)C(=O)CN1CCOCC1	inactive: 1.02
COc1ccc(S(=O)(=O)Nc2ccc3c(c2)C(=O)N([C@@H](C)CO)C[C@@H](C)[C@H](CN(C)Cc2ccc(C(=O)O)cc2)OCCCC[C@H](C)O3)cc1	inactive: 0.998
CC(=O)O[C@H]1C[C@@]2(C)[C@@H](C[C@@H](O)[C@H]3[C@@]4(C)CC[C@@H](O)[C@@H](C)[C@H]4CC[C@@]32C)C1=C(CCC=C(C)C)C(=O)O	inactive: 0.959

SMILES	relative growth
C[C@@H]1CCCCO[C@@H](CN(C)C(=O)Nc2ccccc2)[C@@H](C)CN([C@H](C)CO)C(=O)c2cc(NC(=O)Nc3ccccc3)ccc2O1	inactive: 1.02
C[C@@H]1CN([C@@H](C)CO)C(=O)c2cccc(NS(=O)(=O)c3cccs3)c2O[C@@H]1CN(C)S(=O)(=O)c1cccs1	inactive: 1.01
Cc1ccc(S(=O)(=O)N(C)C[C@@H]2OCCCC[C@@H](C)Oc3ccc(NC(=O)Nc4cccc5ccccc45)cc3C(=O)N([C@H](C)CO)C[C@@H]2C)cc1	inactive: 1.04
C[C@H](CO)N1C[C@H](C)[C@H](CN(C)S(=O)(=O)c2ccc(Cl)cc2)OCCCC[C@H](C)Oc2ccc(NC(=O)Nc3cccc4ccccc34)cc2C1=O	inactive: 1.06
CCOC(=O)c1c(CN2CCN(c3ccccc3)CC2)n(C2CCCCC2)c2cc(Br)c(O)cc12	inactive: 1.01
C[C@H](CO)N1C[C@H](C)[C@@H](CN(C)Cc2ccc(C(=O)Nc3ccccc3N)cc2)Oc2ccc(NC(=O)Nc3ccccc3)cc2CC1=O	inactive: 0.996
OCCN1CCCNCC1	inactive: 1.03
Cc1[nH]c(SCCC(=O)O)nc(=O)c1C	inactive: 1.04
C[C@H]1CN([C@@H](C)CO)C(=O)Cc2cc(NC(=O)Cn3cnnn3)ccc2O[C@@H]1CN(C)C(=O)NC1CCCCC1	inactive: 0.927
COc1cccc(NC(=O)N(C)C[C@@H]2Oc3ncc(C#Cc4cccnc4)cc3C(=O)N([C@@H](C)CO)C[C@H]2C)c1	inactive: 0.999
CC(C(=O)O)c1ccc2c(c1)CC(=O)c1ccccc1S2 (stereo not drawn)	inactive: 1.1
COc1ccc(S(=O)(=O)Nc2cccc3c2O[C@H](CN(C)C(=O)Nc2cccc4ccccc24)[C@@H](C)CN([C@@H](C)CO)C3=O)cc1	inactive: 1
C[C@H](CO)N1C[C@H](C)[C@@H](CN(C)CC2CC2)OCCCC[C@H](C)Oc2ccc(NC(=O)c3ccccc3)cc2C1=O	inactive: 1.02
CN([C@@H](c1ccccc1)c1ccccn1)S(=O)(=O)c1cn(C)c(=O)n(C)c1=O	inactive: 0.994
COc1ccc([Si](C)(C)[C@@H]2[C@@H](CCn3cc([C@H](O)c4ccccc4)nn3)O[C@]3(C(=O)N(Cc4ccc(N5CCC5=O)cc4)c4ccccc43)[C@H]2C)cc1	inactive: 1
COc1cccc(S(=O)(=O)Nc2ccc3c(c2)[C@H]2C[C@@H](CC(=O)N4CCCCC4)O[C@H](CO)[C@H]2O3)c1	inactive: 1.01
C[C@H](CO)N1C[C@H](C)[C@@H](CN(C)CC2CCCCC2)Oc2c(NC(=O)Nc3ccccc3)cccc2C1=O	inactive: 0.949
C[C@H]1CN([C@@H](C)CO)C(=O)c2cc(NC(=O)CCN3CCOCC3)ccc2O[C@H]1CN(C)Cc1ccncc1	inactive: 1
C[C@H](CO)N1C[C@H](C)[C@@H](CN(C)CC2CCCCC2)Oc2ccc(NC(=O)Nc3cccc4ccccc34)cc2CC1=O	inactive: 0.939
COc1ccc(NC(=O)Nc2cccc3c2O[C@@H](CN(C)S(C)(=O)=O)[C@H](C)CN([C@@H](C)CO)C3=O)cc1	inactive: 1.01
COc1ccc(NC(=O)N(C)C[C@@H]2Oc3c(NS(=O)(=O)c4c(C)noc4C)cccc3C(=O)N([C@@H](C)CO)C[C@@H]2C)cc1	inactive: 0.845
